This assay has as its system A498 complex spheroids with HUVEC/MSC, growth. Put plainly: Anticancer human tumor A498 cell line growth inhibition [AhR].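 Also: luminescence signal used as a surrogate for viable cells; seven day exposure starting three days after spheroid seeding; luminescence viability scaled so 100% equals DMSO vehicle wells.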 As to conditions: active compounds read low. The text has this: Multicellular complex tumor spheroid response to aryl hydrocarbon receptor antagonists in combination with a variety of drugs and investigational agents in selected tumor cell lines
The current study was undertaken to assess response to aryl hydrocarbon receptor antagonists in combination with standard-of-care drugs and investigational agents in solid tumor complex spheroid models. Complex spheroids include a stromal component modeled by human endothelial cells (HUVEC) and fibroblasts modeled by human mesenchymal stem cells (MSCs). The concentration ranges selected for each drug and investigational agent were based upon clinically achievable concentrations if the clinical Cmax of the agent was known.
Compounds. The drugs and investigational agents: BAY 2416964 (NSC825713), GNF351 (NSC835774), CH-223191 (NSC835775), CPI-455 (NSC825282), aza-TdCyd (NSC777586), decitabine (NSC127716), belinostat (NSC758774), entinostat (NSC756642), pevonedistat (NSC761192), tazemetostat (NSC777109), talazoparib (NSC765396), olaparib (NSC753686), selinexor (NSC780203), nedisertib (M3814, NSC802822), bortezomib (NSC756655), venetoclax (NSC766270), doxorubicin (NSC123127), elimusertib (BAY189344, NSC800525), ceralasertib (AZD6738, NSC777638), TAK-243 (NSC785004), alisertib (NSC759677), etoposide (NSC141540), topotecan (NSC609699), eribulin (NSC707389), gemcitabine (NSC613327), carboplatin (NSC241240), cisplatin (NSC119875), and SN-38 (NSC673596) were obtained from the National Cancer Institute (NCI) Developmental Therapeutics Program Chemical Repository (32). The FDA-approved anticancer drug set is available from the Developmental Therapeutics Program at https://dtp.cancer.gov/organization/dscb/obtaining/available plates.htm. […] The stock solutions were prepared in dimethyl sulfoxide (DMSO, Sigma-Aldrich, St. Louis, MO, cat. D2650), except for the platinum compounds which were prepared in saline (Quality Biological, Gaithersburg, MD, cat. 114-055-101), at 800-fold the tested concentration and stored at -70 degrees C prior to their use. All drugs and investigational agents were tested over a range starting from a high concentration at or near the clinical Cmax and decreasing in half-log increments. If the clinical Cmax for an agent had not been determined, the highest concentration tested was 10 microM (Table 1).
Cell Culture. All cells were maintained in an incubator at 37 degrees C and 5% CO2 with 95% humidity. The PDC lines were cultured according to standard operating procedures established by the NCI PDMR (https://pdmr.cancer.gov). Briefly, all PDCs were thawed and cultured in Matrigel-coated flasks prepared with a working solution of 1X Ham's F-12 nutrient mix, without supplementation (Invitrogen, Waltham, MA, cat. 11765054), 100 U/mL penicillin-streptomycin (Invitrogen, cat. 15140122), and 2.5% Matrigel (Corning Inc., Corning, NY, cat. 354248) for the first three passages. All PDCs were cultured in complete DMEM/F-12 media containing advanced DMEM/F-12 (Invitrogen, cat. 12634028), 4.9% defined fetal bovine serum, heat inactivated (HyClone Laboratories Inc., Logan, UT, cat. SH30070.03HI), 389 ng/mL hydrocortisone (Sigma-Aldrich, cat. H4001), 9.7 ng/mL human EGF recombinant protein (Invitrogen, cat. PHG0313), 23.4 microg/mL adenine (Sigma-Aldrich, cat. A2786), 97.3 U/mL penicillin-streptomycin (Invitrogen, cat. 15140122), 1.9 mM L-glutamine (Invitrogen, cat. 25030081), and 9.7 microM Y-27632 dihydrochloride (Tocris Bioscience, Bristol, United Kingdom, cat. 1254). The PDCs were cultured in complete DMEM/F12 media without 10 microM Y-27632 dihydrochloride for at least two passages prior to the screen. The established cell lines NCI-H1341 and […] were cultured in DMEM/F-12, HEPES (Invitrogen, cat. 11330032), 5% defined fetal bovine serum (HyClone Laboratories Inc., cat. SH30070.03), ITS premix universal culture supplement [insulin (5 microg/mL), transferrin (5 microg/mL), and selenious acid (5 ng/mL)] […]

“And” between values parts separate entries of the source, which are not always exact repeats. Identical values can stand only once. Further values from the same series stand in other lists.

Our source for the viability, T/C values is PubChem BioAssay AID1919007 (Molecular Pharmacology Branch, DTP, NCI, 2023).

Consider `Cc1cncc(-c2nc(NCCc3c[nH]c4ccccc34)c3ncn(C(C)C)c3n2)c1`, for which the viability, T/C is, setting by setting: (compound 0.1 µM) 90.2% [middle of 5 runs]; (compound 0.316 µM) 96.3% [middle of 5 runs]; (compound 1 µM) 92.4% [middle of 4 runs]; (compound 3.16 µM) 54.5% and 45.5% and 49.8%; (compound 10 µM) 5.41% and 3.13% and 3.53%.
On to `Cc1ccccc1N=Nc1ccc(NC(=O)c2ccnn2C)c(C)c1`, for which the viability, T/C runs as follows: (compound 0.316 µM) 89.8% [middle of 5 runs]; (compound 3.16 µM) 79.7% [middle of 4 runs]; (compound 10 µM) 85.9% [middle of 5 runs].
For the compound `CC(CO)NC(=O)c1cc(-c2ccc(Cl)cc2)nn(-c2cnn(C)c2)c1=O` (stereo not drawn), the viability, T/C by setting is: (compound 0.1 µM) 92.8% [middle of 5 runs]; (compound 0.316 µM) 86.7% and 94% and 87%; (compound 1 µM) 92.1% [middle of 4 runs]; (compound 3.16 µM) 77.3% [middle of 5 runs]; (compound 10 µM) 65% [middle of 6 runs].
